# PubChem BioAssay AID1240 (Sanford-Burnham Center for Chemical Genomics, 2008)
# Among all 50,000 compounds or so, about 800 (1.6%) showed an effect of 50% or more. The list shows a part of the results.
# Target: Bcl-2-like protein 10 (Homo sapiens) (UniProt Q9HD36)
# Assay: Phenotype converters, Bcl-B/TR3 peptide binding displacement, primary biochemical FP (AID 1240);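 note: 0% = Bcl-B with tracer peptide and DMSO and 100% = tracer peptide lacking Bcl-B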
# Conditions: GST-Bcl-B / FITC-TR3 peptide fluorescence polarization; stronger effect = higher value; compound at 3.75 mg/L
# Chain of UniProt Q9HD36 (Q9HD36 whole entry, looked up): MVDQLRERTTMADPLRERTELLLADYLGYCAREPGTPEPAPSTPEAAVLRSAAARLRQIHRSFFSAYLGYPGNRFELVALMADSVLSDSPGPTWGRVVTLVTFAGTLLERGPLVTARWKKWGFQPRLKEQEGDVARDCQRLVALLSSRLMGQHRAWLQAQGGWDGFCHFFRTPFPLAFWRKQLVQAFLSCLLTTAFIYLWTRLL
row,SMILES,displacement [%]
1,CN(C)c1ccc(/C=C2/SC(=S)N(CC(=O)O)C2=O)cc1Br,-7.4
2,Brc1ccc2[nH]c3c(c2c1)CCCC3n1cccc1 (stereo unspecified),1.7
3,Cc1cc(/C=C2\SC(=O)NC2=O)c(C)n1-c1cccc([N+](=O)[O-])c1,11.6
4,COc1ccc(/C(C)=N/N=C2/NC(=O)C(CC(=O)Nc3cc(Cl)ccc3Cl)S2)cc1 (stereo unspecified),9.5
5,COc1ccc(Cc2c(O)nc(SC)[nH]c2=O)cc1,6.9
6,COc1ccc([N+](=O)[O-])cc1CSc1nc2ccc(N3C(=O)c4ccccc4C3=O)cc2s1,-33.2
7,COc1cccc(Nc2nc(-c3ccc(S(=O)(=O)N4CCOCC4)cc3)cs2)c1,10.4
8,CC1=C(C(=O)OC(C)C)C(c2ccc(C)s2)NC(=O)N1C (stereo unspecified),-15.1
9,CCOC(=O)c1c(NC(=O)/C=C/c2ccc(OC)c(Br)c2)sc(C(C)=O)c1C,-13.9
10,Cc1ccc(C(=O)Nc2ccc(C(=O)O)cc2)o1,-1.2
11,Cc1ccc2oc(C(=O)Nc3cccnc3)c(C)c2c1,-9.8
12,CCOC(=O)C1=C(O)/C(=C/c2ccc(N(C)C)cc2)SC1=Nc1cccc(Cl)c1,-53.7
13,C=CCc1ccccc1OCCn1cc(/C=C2/SC(=S)N(CC)C2=O)c2ccccc21,11.6
14,Nc1ccc(C(=O)N2N=C3CCCCC3C2(O)C(F)(F)F)cc1 (stereo unspecified),-1
15,O=c1oc(-c2ccccc2Cl)nc2sc3c(c12)CCC3,-1.7
16,COc1cccc(/C=N/NS(C)(=O)=O)c1,7.5
17,CCCCCCCCNS(=O)(=O)c1ccc([N+](=O)[O-])cc1,2.7
18,COC(=O)/C(=C/C(C#N)=C/N(C)C)C(C)=O,-1.2
19,CCCOc1cccc(C(=O)Nc2sc(C)cc2C(=O)OC)c1,36.3
20,O=C(Cc1ccccc1[N+](=O)[O-])NCC1CCCO1 (stereo unspecified),-4.4
21,Cc1ccc(C)c(S(=O)(=O)n2ccnc2C(C)C)c1,14.5
22,O=C(/C=C/c1ccc(/C=C/C(=O)c2cccc(N3C(=O)CCC3=O)c2)cc1)c1cccc(N2C(=O)CCC2=O)c1,2.2
23,COc1ccc(NC(=O)C(=O)NCCN2CCN(C(=O)c3ccccc3Cl)CC2)cc1,9
24,O=C1OC(c2ccccc2)=C/C1=C/c1cccs1,8.8

row,SMILES,displacement [%]
1,CC1=NC2(CCCc3c2no[n+]3[O-])N(O)C1(C)C (stereo unspecified),6.9
2,CN1C(=O)CSC1=Nc1ccc(Br)cc1,-8.5
3,COCCOC(=O)C1=C(C)NC(=O)NC1c1cccs1 (stereo unspecified),-0.7
4,CCc1ccc(-c2cc(C(=O)NC3CC3)c3ccccc3n2)cc1,11.5
5,COc1cccc(C(=O)N2CCN(Cc3ccc(F)cc3)CC2)c1OC,14
6,O=C1CC(c2ccccc2)CC2=C1C(c1cccc(OCc3ccccc3)c1)Nc1ccccc1N2 (stereo unspecified),-3
7,Cc1cc(NS(=O)(=O)c2ccc(N/C=C/C(=O)c3cccs3)cc2)nc(C)n1,2.1
8,Cc1cccc(N(CC(=O)NCc2ccco2)S(=O)(=O)c2ccccc2)c1,-6.4
9,O=C(NCCOc1ccccc1F)c1cccc2ccccc12,12.3
10,O=C(O)CCCCCN1C(=O)C2C3c4ccccc4C(c4ccccc43)C2C1=O (stereo unspecified),-3.1
11,CCOC(=O)CSc1nnc(-c2ccncc2)n1-c1ccccc1,-13.2
12,O=C(c1ccc(S(=O)(=O)N2CCCC2)cc1)N1CCN(C/C=C/c2ccccc2)CC1,-5.8
13,CCOC(=O)c1c(NC(=O)c2cc3n(n2)C(C(F)(F)F)CC(c2ccco2)N3)sc(C)c1C (stereo unspecified),0.1
14,Cc1ccc(NC(CC(=O)c2ccccc2)c2ccc(F)cc2)cc1 (stereo unspecified),-10.7
15,COc1ccc(C2CC(=O)C3=C(C2)NC(C)=C(C#N)C3c2ccc(N(C)C)cc2)cc1 (stereo unspecified),11.8
16,CCOc1ccc(S(=O)(=O)N(CC(=O)NCc2ccc(OC)cc2)c2ccc(C)cc2)cc1,-1.6
17,CCOC(=O)c1c(NC(=O)c2ccc(S(=O)(=O)N3CCCCCC3)cc2)sc(C)c1C,31.1
18,Cc1ccc(S(=O)(=O)NC(=O)Nc2cc(C)ccc2F)cc1,4.8
19,COc1cc(C(=O)N2c3ccccc3-c3c(ssc3=S)C2(C)C)cc(OC)c1OC,16.7
20,Fc1ccc(NC(=S)Nc2ccc(Br)cc2)cc1,-1.3
21,O=C(Nc1cc2c(s1)CCCC2)c1ccccc1,11.4
22,Cc1ccc(-c2ccc(/C=N/n3nnnc3N)o2)cc1Cl,-12.3
23,O=C1NN(c2ccccc2)C(=O)/C1=C\c1cccs1,-10.7
24,COc1ccc(C2=NN(C(=O)CCC(=O)O)C(c3ccccc3F)C2)cc1 (stereo unspecified),12.3

row,SMILES,displacement [%]
1,COCCNC(=O)c1ccc(CN(c2cccc(Cl)c2)S(=O)(=O)c2ccc(C)cc2)cc1,-4
2,CCOc1ccc(C(=O)Nc2cccc(OC)c2)cc1Cl,-0.1
3,O=C(O)CCCCCCCCCCC1COCCO1 (stereo unspecified),-3.1
4,Cc1cc(/C=N/NC(N)=S)c(C)n1-c1ccc(F)cc1,-17.6
5,Oc1ccccc1CNC12CN3CN(CN(C3)C1)C2,-5.2
6,CCCc1cc(=O)oc2cc(OCc3c(F)cccc3Cl)ccc12,15.5
7,O=C1C(Cc2ccccc2)NC(=S)N1c1ccccc1 (stereo unspecified),-7.7
8,CCOc1cc(C(=O)Nc2ncccn2)cc(OCC)c1OCC,2.2
9,CCOc1cc(C(=S)N2CCCCC2)cc(I)c1O,0.1
10,CCN(CC)C(=O)/C(=C/c1cccc([N+](=O)[O-])c1)NC(=O)c1ccc(C)cc1,26.6
11,COc1ccc(S(=O)(=O)Nc2ccc(S(=O)(=O)NC(C)=O)cc2)cc1,-4
12,COc1cc(C2CC(=O)Nc3c2ccc2ccccc32)ccc1O (stereo unspecified),-13.6
13,CC(C)(C)c1ccc(OCC(=O)NCc2ccccn2)cc1,-15.1
14,CCN(CC)CCNC(=O)C1(c2ccccc2)CCOCC1,-1.5
15,NC(=O)c1ccc(NC(=O)/C=C/c2ccccc2)cc1,-5.5
16,Cc1ccc(Cl)cc1NC(=O)c1c(F)c(F)c(F)c(F)c1F,6.5
17,O=C(CC(c1ccco1)S(=O)(=O)c1ccccc1)c1ccccc1 (stereo unspecified),-6.9
18,O=C(Nc1ccc(Br)c(Br)c1)c1ncn[nH]1,-4.7
19,O=C(c1ccc(I)cc1)N1CCN(c2ccccc2)CC1,-9.9
20,Cc1ccccc1NC(=O)CSc1ccc(Cl)cc1Cl,4.2
21,CN(C)c1cccc(NC(=O)C(c2ccccc2)c2ccccc2)c1,-10.3
22,COc1ccccc1C1/C(=C(\O)c2ccc(Cl)cc2)C(=O)C(=O)N1c1cccnc1 (stereo unspecified),-1.5
23,CCOC(=O)c1c(NC(=O)/C=C/c2cccs2)sc2c1CCCC2,-3.1
